# What was measured:
# [1] = 1000 ppm in sterile distilled water, 45° C., up to 75 days, HPLC
# Protocol: The peptide of the present invention consisting of the amino acid sequence of SEQ ID NO: 1 was dissolved in sterile distilled water at a concentration of 1000 ppm, and stored at 45° C. for 7 days, 14 days, 28 days, 60 days, and 75 days, and then HPLC analysis was performed.
# [2] = 1000 ppm in sterile distilled water, 121° C., up to 30 minutes, HPLC
# Protocol: The peptide of the present invention was dissolved in sterile distilled water at a concentration of 1000 ppm, heated at 121° C. for 15 minutes and 30 minutes, and then HPLC analysis was performed.
substance,measurement,setting,value
KFLIK [peptide of the present invention],stability of the peptide during storage,[1],maintained
same,stability of the peptide on heating,[2],maintained

# Source: patent US20240285780A1 (priority 2020, published 2024)
